Reference: PubChem BioAssay AID1345083 (National Center for Advancing Translational Sciences (NCATS), 2018)
Hit rate of the full screen: of about 94,000 compounds, about 6,200 (6.6%) were called active. The inconclusive results got no clear call from the source; some entries with a clear call stand among them for comparison. Calls follow the shape of the dose curve; as a rule, active = well fitted inhibition curve with a large enough effect; inconclusive = small, poorly fitted or top-dose-only effect; inactive = flat fitted curve, though single readings scatter. Where the call is inconclusive, the potency comes from a doubtful curve fit.

Experiment: Cytotoxic Profiling in HEK 293 Cell Line of Diverse Libraries Using Quantitative High-Throughput Screening; also: nearly all actives have a fitted effect of over 60% in size
Details: HEK 293 viability, ATP luminescence (CellTiter-Glo), 48-72 h; series mostly up to 115 µM; activity change, negative = cytotoxicity: at the top concentration
In short: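 CellTiter-Glo luminescence (cellular ATP) was read after 48 or 72 hr of compound exposure at 37 degree Celsius. Cells were HEK 293 plated at 250 cells/well.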
% is scaled to controls: 0 for no effect and ±100 for the full control effect; potency is read from the fitted curve at half-maximal effect; tags tell the direction and shape of the fitted curve.

Row | Compound | Potency | activity change, negative = cytotoxicity | outcome
1 | Cc1ncccc1C(=O)N1[C@H]2CC[C@@H]1c1cnc(-c3ccc(F)cc3)nc1C2 | inconclusive: 39.8 µM [inhibitor, partial curve, poor fit] | – | –
2 | CC1(C)C(C(=O)N2CCC3(CC2)Nc2ccccc2NC3=O)C1(C)C | inconclusive: 50.1 µM [inhibitor, partial curve, poor fit] | – | –
3 | Cc1nc(-c2ccc(C(F)(F)F)cc2)cc([C@H]2CN3CC[C@H]2C[C@@H]3CNC(=O)C2CCC2)n1 | inconclusive: 50.1 µM [inhibitor, partial curve, poor fit] | – | –
4 | O=C(C1CCCCC1)N1C[C@@H]2C[C@H](C1)c1c(-c3cccs3)ccc(=O)n1C2 | inconclusive: 79.4 µM [inhibitor, partial curve, poor fit] | – | –
5 | c1cncc(C2=NOC3(CCCN(CC4CCCC4)C3)C2)c1 (stereo unspecified) | – | inactive: 4.15% | –
6 | N#Cc1ccccc1S(=O)(=O)N1C[C@@H]2C[C@H](C1)c1ccc(-c3ccc(Cl)cc3)c(=O)n1C2 | inconclusive: 56.2 µM [inhibitor, partial curve, poor fit] | – | –
7 | CC[C@H]1CN2CC[C@H]1C[C@@H]2CNS(=O)(=O)c1cccc(F)c1 | – | – | inactive [at 172 µM]
8 | COc1ccc(-c2cc([C@H]3CN4CC[C@H]3C[C@@H]4CNC(=O)COc3ccccc3)n(C)n2)cc1 | inconclusive: 50.1 µM [inhibitor, partial curve, poor fit] | – | –
9 | Cn1cc(C(=O)N2[C@H]3CC[C@@H]2c2cnc(-c4ccccc4)nc2C3)cn1 | inconclusive: 100 µM [inhibitor, single point] | – | –
10 | Cc1nonc1CC(=O)N1C[C@H](O)[C@@H](N2CCC(O)CC2)C1 | – | inactive: -35.3% | –
11 | COc1cc2c(cc1OCC1CC1)NC(=O)C21CCN(CCC(C)C)CC1 | – | inactive: -27.5% [at 172 µM] | –
12 | COc1cc2c(cc1OCc1ccccc1)NC(=O)C21CCN(C(=O)c2cccnc2)CC1 | active: 50.1 µM | – | –
13 | COc1cc2c(cc1OC1CCCC1)NC(=O)C21CCN(Cc2nccn2C)CC1 | inconclusive: 126 µM [inhibitor, single point] | – | –
14 | Cc1nc(C2CCCC2)cc([C@H]2CN3CC[C@H]2C[C@@H]3CNC(=O)c2ccco2)n1 | inconclusive: 126 µM [inhibitor, single point] | – | –
15 | CC(C)N1CC2CCC(C1)N2C(=O)c1ccncc1 | – | inactive: -9.81% [at 172 µM] | –
16 | COc1cc2c(cc1OCC1CC1)NC(=O)C21CCN(C(=O)Cc2ccccc2)CC1 | inconclusive: 79.4 µM [inhibitor, partial curve, poor fit] | – | –
17 | Cn1nc(-c2ccc3ccccc3c2)cc1[C@H]1CN2CC[C@H]1C[C@@H]2CNC(=O)COc1ccccc1 | active: 25.1 µM | – | –
18 | Cc1nc(-c2cccs2)cc([C@H]2CN3CC[C@H]2C[C@@H]3CNS(=O)(=O)c2ccccc2)n1 | active: 28.2 µM | – | –
19 | O=C(NC[C@H]1C[C@@H]2CCN1C[C@@H]2CN1CCCCC1)Nc1ccsc1 | – | inactive: -19.4% [at 172 µM] | –
20 | C#CCN1C(=O)[C@@H]2[C@H](c3ccccc31)[C@@H](C(=O)OCC)[C@@H](c1ccccc1)N2C(=O)c1ccco1 | active: 31.6 µM | – | –
21 | CCN1CCCCC12Cc1ccccc1CN(C(=O)Cc1ccc(O)cc1)C2 (stereo unspecified) | – | inactive: -11.1% | –

Row | Compound | Potency | activity change, negative = cytotoxicity | outcome
22 | COc1cc2c(cc1OC1CCCC1)NC(=O)C21CCN(C(=O)Cc2ccccc2)CC1 | active: 79.4 µM | – | –
23 | COc1cc2c(cc1OCc1ccccc1)N(C(=O)c1cccc3[nH]ccc13)CC21CCN(C)CC1 | inconclusive: 50.1 µM [inhibitor, partial curve, poor fit] | – | –
24 | O=C(Cc1cccc(Cl)c1)N1CCN(Cc2ccccc2-c2ccccc2F)CC1 | inconclusive: 56.2 µM [inhibitor, partial curve, poor fit] | – | –
25 | COc1ccc([C@@H]2CN(C(=O)Cc3nonc3C)[C@@H]3C4CCN(CC4)[C@@H]32)cc1 | – | inactive: -2.6% | –
26 | C#C[C@H]1CN2CC[C@H]1C[C@@H]2CNS(=O)(=O)c1ccc(Cl)cc1 | – | inactive: -13% [at 172 µM] | –
27 | COc1ccc(-c2cc([C@H]3CN4CC[C@H]3C[C@@H]4CNS(=O)(=O)c3ccccc3)n(C)n2)cc1OC | inconclusive: 89.1 µM [inhibitor, single point] | – | –
28 | Cc1ncc2c(n1)C[C@@H]1CC[C@H]2N1C(=O)NCCc1ccccc1 | – | – | inactive
29 | Cc1nc(-c2ccccc2)cc([C@H]2CN3CC[C@H]2C[C@@H]3CNS(C)(=O)=O)n1 | – | inactive: -21.2% [at 172 µM] | –
30 | COc1ccc(CC(=O)N2Cc3ccccc3CC3(CCCN3C)C2)cc1 (stereo unspecified) | inconclusive: 79.4 µM [inhibitor, partial curve] | – | –
31 | COc1ccc(-c2cc([C@H]3CN4CC[C@H]3C[C@@H]4CNS(=O)(=O)c3ccc(Cl)cc3)n(C)n2)cc1OC | active: 28.2 µM | – | –
32 | CC[C@H]1CN2CC[C@H]1C[C@@H]2CNCc1ccc(OC)cc1 | inconclusive: 141 µM [inhibitor, single point] | – | –
33 | CC(C)NC(=O)NC[C@H]1C[C@@H]2CCN1C[C@@H]2CN(C)c1ccccc1 | inconclusive: 126 µM [inhibitor, single point] | – | –
34 | CC(C)CC(=O)N1[C@H]2CC[C@@H]1c1cnc(-c3ccc(F)cc3)nc1C2 | active: 20 µM | – | –
35 | CC(C)(O)c1cn(C[C@H]2C[C@@H]3CCN2C[C@@H]3C(=O)NCc2ccc(F)cc2)nn1 | – | inactive: -7.46% [at 172 µM] | –
36 | COc1ccc(-c2cc([C@H]3CN4CC[C@H]3C[C@@H]4CNC(=O)c3cccs3)n(C)n2)cc1 | inconclusive: 56.2 µM [inhibitor, partial curve, poor fit] | – | –
37 | O=C(COc1ccc(F)cc1)N1[C@H]2CC[C@@H]1c1cnc(-c3ccc(F)cc3)nc1C2 | inconclusive: 44.7 µM [inhibitor, partial curve, poor fit] | – | –
38 | O=C(NCc1ccco1)N1C[C@@H](c2ccc(F)cc2)[C@@H]2[C@H]1C1CCN2CC1 | – | inactive: -14.2% | –
39 | COc1ccccc1N1CCN(C(=O)[C@H]2CN3CCC2C[C@@H]3Cn2cc(COc3ccccc3)nn2)CC1 (stereo partly specified) | – | inactive: -19.3% | –
40 | O=C(Cc1cccc(Cl)c1)N1CCN(Cc2ccccc2-c2cccnc2)CC1 | inconclusive: 39.8 µM [inhibitor, partial curve, poor fit] | – | –
41 | COc1ccccc1N1CCN(C(=O)[C@H]2CN3CCC2C[C@@H]3Cn2cc(-c3ccccc3)nn2)CC1 (stereo partly specified) | active: 44.7 µM | – | –
